# Measured values: the supplement of paper PMC10037445
# Whole data set: some 2,900 compounds, median “NF-kB SEAP reporter activity, fold change vs agonist alone” near 0.99, cut for the highest 2% near 2.6. Some of the results follow.
# Key:
# RAW-Dual [1] = test: NF-kB SEAP reporter activity, fold change vs agonist alone; higher = enhanced NF-kB activity; settings: library stock concentration (final ~1000-fold dilution): 10 mM
# Summary of the method: (§1)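 After 50 nL of library stock was delivered by pin tool to RAW-Dual macrophages (50,000 cells/well, DMEM, 384-well plates), a PRR agonist was added 1 h later and the plates were kept at 37 °C, 5% CO2. Twenty hours later, IRF was read from supernatant by QuantiLuc luminescence and NF-κB by QuantiBlue absorbance at 620 nm. Reporter activity is stated as fold change over agonist-alone wells. Wells with IncuCyte confluency under 70% of agonist controls in both mask sets were counted as cytotoxic.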
# RAW-Dual [2] = test: NF-kB SEAP reporter activity, fold change vs agonist alone; cytotoxicity flag (confluency mask): not cytotoxic; higher = enhanced NF-kB activity
# Summary of the method: as §1
# RAW-Dual [3] = test: NF-kB SEAP reporter activity, fold change vs agonist alone; cytotoxicity flag (confluency mask): cytotoxic (confluency <70% of control); higher = enhanced NF-kB activity
# Summary of the method: as §1
# [4] = cytotoxicity flag (confluency mask): not cytotoxic, agonist: Imiquimod (TLR7) […]
# [5] = cytotoxicity flag (confluency mask): not cytotoxic, agonist: MPLA (TLR4) […]
# [6] = agonist: ODN 1826 (TLR9) 0.5 ug/mL
# [7] = agonist: Pam2CSK4 (TLR2/6) 0.1 ug/mL
# [8] = agonist: Pam3CSK4 (TLR2/1) 0.1 ug/mL
smiles,measurement,setting,value
Cl.NCCc1ccc(S(=O)(=O)F)cc1,NF-kB SEAP reporter activity,RAW-Dual [1]; [4],1.07
same,NF-kB SEAP reporter activity,RAW-Dual [1]; [5],1.23
Cl.NCCc1ccc(S(=O)(=O)F)cc1 (library stock concentration (final ~1000-fold dilution): 10 mM),NF-kB SEAP reporter activity,RAW-Dual [2]; agonist: LPS (TLR4) 0.1 ug/mL,1.6
same,NF-kB SEAP reporter activity,RAW-Dual [2]; [6],1.01
same,NF-kB SEAP reporter activity,RAW-Dual [2]; [7],1.03
same,NF-kB SEAP reporter activity,RAW-Dual [2]; [8],1.9
COc1ccc(O)c(C(C)(C)C)c1 (library stock concentration (final ~1000-fold dilution): 10 mM),NF-kB SEAP reporter activity,RAW-Dual [2]; agonist: LPS (TLR4) 0.1 ug/mL,0.929
same,NF-kB SEAP reporter activity,RAW-Dual [2]; [6],0.665
same,NF-kB SEAP reporter activity,RAW-Dual [2]; [7],0.786
same,NF-kB SEAP reporter activity,RAW-Dual [2]; [8],0.695
COc1ccc(O)c(C(C)(C)C)c1,NF-kB SEAP reporter activity,RAW-Dual [1]; [4],0.901
same,NF-kB SEAP reporter activity,RAW-Dual [1]; [5],0.958
COc1ccc2c3c([nH]c2c1)C(C)=NCC3 (library stock concentration (final ~1000-fold dilution): 10 mM),NF-kB SEAP reporter activity,RAW-Dual [2]; agonist: LPS (TLR4) 0.1 ug/mL,0.902
same,NF-kB SEAP reporter activity,RAW-Dual [2]; [6],0.237
same,NF-kB SEAP reporter activity,RAW-Dual [2]; [7],1.02
same,NF-kB SEAP reporter activity,RAW-Dual [2]; [8],1.05
COc1ccc2c3c([nH]c2c1)C(C)=NCC3,NF-kB SEAP reporter activity,RAW-Dual [1]; [5],1.09
CCC(C)C(NC(=O)C(C(C)CC)N(C)C(C)=O)C(=O)NC(=O)C(NC(CC(C)C)C(=O)C1(C)CO1)C(C)O (stereo unspecified) (library stock concentration (final ~1000-fold dilution): 10 mM),NF-kB SEAP reporter activity,RAW-Dual [2]; agonist: LPS (TLR4) 0.1 ug/mL,0.773
same,NF-kB SEAP reporter activity,RAW-Dual [2]; [6],1.17
same,NF-kB SEAP reporter activity,RAW-Dual [2]; [7],0.28
same,NF-kB SEAP reporter activity,RAW-Dual [2]; [8],0.51
CCC(C)C(NC(=O)C(C(C)CC)N(C)C(C)=O)C(=O)NC(=O)C(NC(CC(C)C)C(=O)C1(C)CO1)C(C)O (stereo unspecified),NF-kB SEAP reporter activity,RAW-Dual [1]; [4],2.27
same,NF-kB SEAP reporter activity,RAW-Dual [1]; [5],1.06
O=C(Oc1ccc([N+](=O)[O-])cc1)N1CCC(C(O)(c2ccc3c(c2)OCO3)c2ccc3c(c2)OCO3)CC1 (library stock concentration (final ~1000-fold dilution): 10 mM),NF-kB SEAP reporter activity,RAW-Dual [2]; agonist: LPS (TLR4) 0.1 ug/mL,0.723
same,NF-kB SEAP reporter activity,RAW-Dual [2]; [6],0.521
same,NF-kB SEAP reporter activity,RAW-Dual [2]; [7],0.695
same,NF-kB SEAP reporter activity,RAW-Dual [2]; [8],0.61
O=C(Oc1ccc([N+](=O)[O-])cc1)N1CCC(C(O)(c2ccc3c(c2)OCO3)c2ccc3c(c2)OCO3)CC1,NF-kB SEAP reporter activity,RAW-Dual [1]; [5],0.794
CC1CCC2C(C)C3CCC4C(CC5C4CC(O)C4CC(O)CCC45C)C3CN2C1 (stereo unspecified),NF-kB SEAP reporter activity,RAW-Dual [1]; [4],0.845
same,NF-kB SEAP reporter activity,RAW-Dual [1]; [5],1.03
CC1CCC2C(C)C3CCC4C(CC5C4CC(O)C4CC(O)CCC45C)C3CN2C1 (stereo unspecified) (library stock concentration (final ~1000-fold dilution): 10 mM),NF-kB SEAP reporter activity,RAW-Dual [2]; agonist: LPS (TLR4) 0.1 ug/mL,1.15
same,NF-kB SEAP reporter activity,RAW-Dual [2]; [6],0.753
same,NF-kB SEAP reporter activity,RAW-Dual [2]; [7],0.965
same,NF-kB SEAP reporter activity,RAW-Dual [2]; [8],0.935
COc1cc2c(cc1OC)C1CC(=O)C(CC(C)C)CN1CC2 (stereo unspecified) (library stock concentration (final ~1000-fold dilution): 10 mM),NF-kB SEAP reporter activity,RAW-Dual [2]; agonist: LPS (TLR4) 0.1 ug/mL,1.08
same,NF-kB SEAP reporter activity,RAW-Dual [2]; [6],1.02
same,NF-kB SEAP reporter activity,RAW-Dual [2]; [7],0.98
same,NF-kB SEAP reporter activity,RAW-Dual [2]; [8],1.05
COc1cc2c(cc1OC)C1CC(=O)C(CC(C)C)CN1CC2 (stereo unspecified),NF-kB SEAP reporter activity,RAW-Dual [1]; [4],0.786
same,NF-kB SEAP reporter activity,RAW-Dual [1]; [5],0.826
CN1CCc2cc3c(cc2C1C1OC(=O)c2c1ccc1c2OCO1)OCO3 (stereo unspecified),NF-kB SEAP reporter activity,RAW-Dual [1]; [4],0.942
same,NF-kB SEAP reporter activity,RAW-Dual [1]; [5],1.19
CN1CCc2cc3c(cc2C1C1OC(=O)c2c1ccc1c2OCO1)OCO3 (stereo unspecified) (library stock concentration (final ~1000-fold dilution): 10 mM),NF-kB SEAP reporter activity,RAW-Dual [2]; agonist: LPS (TLR4) 0.1 ug/mL,1.19
same,NF-kB SEAP reporter activity,RAW-Dual [2]; [6],0.98
same,NF-kB SEAP reporter activity,RAW-Dual [2]; [7],1.04
same,NF-kB SEAP reporter activity,RAW-Dual [2]; [8],1.02
CCc1c2c(nc3ccccc13)-c1cc3c(c(=O)n1C2)COC(=O)C3(O)CC (stereo unspecified) (library stock concentration (final ~1000-fold dilution): 10 mM),NF-kB SEAP reporter activity,RAW-Dual [3]; agonist: LPS (TLR4) 0.1 ug/mL,0.384
same,NF-kB SEAP reporter activity,RAW-Dual [3]; [6],2.29
same,NF-kB SEAP reporter activity,RAW-Dual [3]; [7],0.788
same,NF-kB SEAP reporter activity,RAW-Dual [3]; [8],0.641
CCc1c2c(nc3ccccc13)-c1cc3c(c(=O)n1C2)COC(=O)C3(O)CC (stereo unspecified),NF-kB SEAP reporter activity,"RAW-Dual [1]; cytotoxicity flag (confluency mask): cytotoxic (confluency <70% of control), agonist: MPLA (TLR4) […]",1.62
Br.COc1ccc2c(c1)C13CCCCC1C(C2)N(C)CC3.O (stereo unspecified),NF-kB SEAP reporter activity,RAW-Dual [1]; [5],0.902
Br.COc1ccc2c(c1)C13CCCCC1C(C2)N(C)CC3.O (stereo unspecified) (library stock concentration (final ~1000-fold dilution): 10 mM),NF-kB SEAP reporter activity,RAW-Dual [2]; agonist: LPS (TLR4) 0.1 ug/mL,0.802
same,NF-kB SEAP reporter activity,RAW-Dual [2]; [6],0.615
same,NF-kB SEAP reporter activity,RAW-Dual [2]; [7],0.806
same,NF-kB SEAP reporter activity,RAW-Dual [2]; [8],0.824
O=S(=O)(F)Cc1ccccc1 (library stock concentration (final ~1000-fold dilution): 10 mM),NF-kB SEAP reporter activity,RAW-Dual [2]; agonist: LPS (TLR4) 0.1 ug/mL,1.13
same,NF-kB SEAP reporter activity,RAW-Dual [2]; [6],1.07
same,NF-kB SEAP reporter activity,RAW-Dual [2]; [7],1.03
same,NF-kB SEAP reporter activity,RAW-Dual [2]; [8],1.07
O=S(=O)(F)Cc1ccccc1,NF-kB SEAP reporter activity,RAW-Dual [1]; [4],1.11
same,NF-kB SEAP reporter activity,RAW-Dual [1]; [5],1.12
CCNCC.O=C(O)Cc1ccccc1Nc1c(Cl)cccc1Cl (library stock concentration (final ~1000-fold dilution): 10 mM),NF-kB SEAP reporter activity,RAW-Dual [2]; agonist: LPS (TLR4) 0.1 ug/mL,1.05
same,NF-kB SEAP reporter activity,RAW-Dual [2]; [6],1.07
same,NF-kB SEAP reporter activity,RAW-Dual [2]; [7],1.03
same,NF-kB SEAP reporter activity,RAW-Dual [2]; [8],0.876
CCNCC.O=C(O)Cc1ccccc1Nc1c(Cl)cccc1Cl,NF-kB SEAP reporter activity,RAW-Dual [1]; [4],1.15
same,NF-kB SEAP reporter activity,RAW-Dual [1]; [5],0.921
COc1cc(-n2c(S)nc3ccccc3c2=O)c(Cl)cc1Cl (library stock concentration (final ~1000-fold dilution): 10 mM),NF-kB SEAP reporter activity,RAW-Dual [2]; agonist: LPS (TLR4) 0.1 ug/mL,1.4
same,NF-kB SEAP reporter activity,RAW-Dual [2]; [6],0.842
same,NF-kB SEAP reporter activity,RAW-Dual [2]; [7],0.849
same,NF-kB SEAP reporter activity,RAW-Dual [2]; [8],0.826
COc1cc(-n2c(S)nc3ccccc3c2=O)c(Cl)cc1Cl,NF-kB SEAP reporter activity,RAW-Dual [1]; [4],0.851
same,NF-kB SEAP reporter activity,RAW-Dual [1]; [5],0.953
Cc1cc(C(=O)CN2CCCC2)c(C)n1-c1ccc(F)cc1,NF-kB SEAP reporter activity,RAW-Dual [1]; [4],0.779
same,NF-kB SEAP reporter activity,RAW-Dual [1]; [5],1.01
Cc1cc(C(=O)CN2CCCC2)c(C)n1-c1ccc(F)cc1 (library stock concentration (final ~1000-fold dilution): 10 mM),NF-kB SEAP reporter activity,RAW-Dual [2]; agonist: LPS (TLR4) 0.1 ug/mL,0.816
same,NF-kB SEAP reporter activity,RAW-Dual [2]; [6],0.569
same,NF-kB SEAP reporter activity,RAW-Dual [2]; [7],1.03
same,NF-kB SEAP reporter activity,RAW-Dual [2]; [8],0.942
CC1CCC/C=C/C2CC(O)CC2C(O)/C=C/C(=O)O1 (stereo unspecified),NF-kB SEAP reporter activity,RAW-Dual [1]; [4],1.48
same,NF-kB SEAP reporter activity,RAW-Dual [1]; [5],0.636
CC1CCC/C=C/C2CC(O)CC2C(O)/C=C/C(=O)O1 (stereo unspecified) (library stock concentration (final ~1000-fold dilution): 10 mM),NF-kB SEAP reporter activity,RAW-Dual [2]; agonist: LPS (TLR4) 0.1 ug/mL,0.305
same,NF-kB SEAP reporter activity,RAW-Dual [2]; [6],0.297
same,NF-kB SEAP reporter activity,RAW-Dual [2]; [7],0.209
same,NF-kB SEAP reporter activity,RAW-Dual [2]; [8],0.469
